# ± gives the standard deviation of the averaged measurements. Some of the results follow.
# System: PfAP2-G AP2 domain (GST-tagged)
# Assay: gcPBM binding intensity (ln(normalized median fluorescence intensity)); higher = stronger DNA binding
# Outline: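 Binding of GST-tagged P. falciparum DNA-binding domains, expressed in E. coli and used at about 25 μg on average, was carried out for 1 h in 1× PBS containing 1% milk, 0.2 mg/ml BSA, 0.5% salmon testes DNA and 0.03% Triton X-100. The target was an Agilent 4 × 180k array of primer-extended double-stranded 36-bp intergenic genomic probes plus negative controls, read with Alexa488 anti-GST antibody at 488 nm. Binding intensity is the highest Masliner-normalised natural-log median intensity across replicate spots of either probe orientation.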
row,Sequence,gcPBM binding intensity (ln)
1,GATATGATTAACTTATGTTATTCTTGATGGTTTCTT [GTGCAC_negctrl_site411],9.59 ± 0.23
2,CCACTGTATGAATGCACACATTCATAGAATTGCTAT [CACACA_site2676],10.3 ± 0.35
3,AAGAATCACCAAATATGTACACACCTTAACATGTTT [XGTACX_site4272],11.3 ± 0.74
4,ATATGTACATATCTCATGCACTTAACAAAAAAAAAG [GTGCAC_site9898],11.3 ± 1
5,TATATATTCATAAAGTGTACATGTTTATATATATAT [XGTACX_site7585],11.4 ± 0.66
6,TTATTTTTAATATCGGTGCAACAAAAAGGAAAAGAT [GTGCAC_site9482],10.5 ± 0.47
7,TATGTATAGATATATACACACTTCTGTGATACGAAA [CACACA_site7003],10 ± 0.14
8,TTATGATAACTTTGCACACACTTAGGAAAAGTTATG [CACACA_site6836],10.2 ± 0.18
9,TATTTTAACTTTTTTTCCTTTATTCATTTTTTTTTC [CACACA_negctrl_site971],9.69 ± 0.28
10,TTTTTTTTTTTATGTGCACACAAAAGATGCTTATAT [CACACA_site2347],10.6 ± 0.53
11,TGATGCAAGATATATACACACATATAAATATAAATA [CACACA_site7429],9.8 ± 0.042
12,ATCTTTATTTTTAGCGCACACATAAAATAATAATAA [CACACA_site3458],10.6 ± 0.4
13,CAAAGCATTTTATCTACACACATATATAAATAAATA [CACACA_site7500],9.865 ± 0.078
14,AAATAATTTATATGTAGTACATGTTGTAGATAATTT [XGTACX_site1031],11.6 ± 1.1
15,TATATATATATAATATGTACATATATATATTCTTAA [XGTACX_site6154],11 ± 0.55
16,ATAATTCATGTTTAGTGTACAAAAAATTAAAGCAAC [XGTACX_site8891],11.3 ± 0.68
17,TGATTATATAAAAAAAAGAAAAAAAAAAAAAAAAAA [CACACA_negctrl_site819],9.5 ± 0.42
18,ATGCATCATTTATTTGCACACCTATTATATACTTTT [CACACA_site2097],9.89 ± 0.19
19,ATAATTTTTATTTGTACACACATACAGATATATTAT [CACACA_site4701],11.3 ± 0.77

row,Sequence,gcPBM binding intensity (ln)
1,GATATGTACTAATACACACACATATATATATATATA [CACACA_site1022],11.2 ± 0.8
2,TTCTAAAAAGGGTGTACACAAACGAATGGAAAATAA [CACACA_site5483],11.6 ± 0.94
3,GATATAGATATTAATTGTACATATTATTTATTGTTA [XGTACX_site846],11 ± 0.61
4,TTGTAGGAATTTATTTTGACTGATAATTAATACGTT [GTGCAC_negctrl_site46],9.745 ± 0.021
5,ATTAAACATACATATACACACACACCCACCCACCCA [CACACA_site8057],10.9 ± 0.55
6,TAGTGTAAAAAATACGCATGTGTACAAATATAATAA [TGCATGCA_site498],11.3 ± 0.49
7,CACACTAAAAGACACACACACACACGCATATAAATA [CACACA_site7874],10.3 ± 0.4
8,AAATATATATATATATGTACACACACACATATAAAT [XGTACX_site847],11.2 ± 0.72
9,AAAAAAAAATTTGTATCACACACGTATTATAAAAAA [CACACA_site6],10.3 ± 0.16
10,ATTATATAATATAATGCATGTGTTAATGAAAAATCT [TGCATGCA_site426],9.985 ± 0.049
11,AAAAAAAAAAAAAAGTGTACCTTATTATACTTTAAT [XGTACX_site8439],11.3 ± 0.69
12,TAAAGGTGTAAAACTGCATGCTGGAGAAAAGTAAAA [TGCATGCA_site591],10.2 ± 0.2
13,AATAATACGTTAAATGTTCTTACAAGTTGGTTTCAT [CACACA_negctrl_site1029],10.05 ± 0.042
14,CATACACAGAAACACACACACATATATATATATATA [CACACA_site4519],10.3 ± 0.59
15,AGAAAGGAGGAAATAAAAGGACTTCTTTTTTTATAT [CACACA_negctrl_site810],10.23 ± 0.028
16,TTTAAAAAAAATATGTGTACTTAATATTTTCATATA [XGTACX_site7421],11.4 ± 0.84
17,TACATATAAATAATAACACACACCTAGGTACATGGA [CACACA_site838],10.9 ± 0.52
18,ATAGTATTTTTTATTACACACAAATAAAAAGAAAAA [CACACA_site2087],10.2 ± 0.26
19,ATGAAACAGTAACATTGTACTTTTACAAAAAAATAA [XGTACX_site806],11.3 ± 0.91

row,Sequence,gcPBM binding intensity (ln)
1,AAAATCTATATTAACACACACACAAAAAAAAAAAAA [CACACA_site6738],9.89 ± 0.45
2,ATTCATATCTACTTCACACACATTTGATCATTCAAA [CACACA_site7207],10.1 ± 0.11
3,GTTCCCATAAATAAATGTACATATTATATATATATA [XGTACX_site3242],11.2 ± 0.74
4,GTGTAATCATATAAGGGTACAAAAAATGTCTAACAA [XGTACX_site8122],11.2 ± 0.67
5,ATCTTTCGTACATGTACACACAGAAAAAAAAAAAAA [CACACA_site2502],11.5 ± 1
6,TTATTTACCTATTATAGTACATATAATTAATATAAT [XGTACX_site5724],10.9 ± 0.7
7,TTTCATTTCACAGACACACACACACCCTATATTTCC [CACACA_site3906],10.3 ± 0.26
8,ATATATTTTATATAGTGTACTTTAATTTTTTTTTTT [XGTACX_site5550],11.3 ± 0.84
9,ATTTTTTTTTTTTTTGAACACACATTATTAATTTTT [CACACA_site7990],9.95 ± 0.11
10,ATATATATATATGTTAGTACTTATATTGAAATGGTA [XGTACX_site1406],11 ± 0.58
11,ATAAATAAAACAAAATGTACAAATATTCATATATTC [XGTACX_site1307],10.6 ± 0.35
12,AGTAGTCTGGAGAAGAGTACATAGTATCTGATAACC [XGTACX_site2044],11.4 ± 0.89
13,AAGAATTTTACAAAATGTACTTATGTTTTGTTTTAC [XGTACX_site5632],11 ± 0.64
14,GTAAAAATTTCATATTCACACACAAAAAAAAAAAAT [CACACA_site8457],10.1 ± 0.26
15,TTACTAAACTTATATGTACACACATATAACATTAAT [CACACA_site8710],11.2 ± 0.7
16,TAAAAAAAAAAAAAAAGTACCCATACTATATTACAT [XGTACX_site946],11.2 ± 0.81
17,ATAAATAAATTTATACGTACACATAATATATATATA [XGTACX_site4634],11.6 ± 0.89
18,AAAAATAAAATGATGGTGCACATAAAGTATGGTTAC,10.7 ± 0.35
19,ATTGAAAATTATTTACCTTCTTTGAAAGAACAAATG [CACACA_negctrl_site1736],10.1 ± 0.16
